The list shows a part of the results. These are noisy estimates, calculated here from bound and input reads.

For this experiment, the target named is T1, Pho4 (S. cerevisiae) (UniProt P07270).
T1 sequence: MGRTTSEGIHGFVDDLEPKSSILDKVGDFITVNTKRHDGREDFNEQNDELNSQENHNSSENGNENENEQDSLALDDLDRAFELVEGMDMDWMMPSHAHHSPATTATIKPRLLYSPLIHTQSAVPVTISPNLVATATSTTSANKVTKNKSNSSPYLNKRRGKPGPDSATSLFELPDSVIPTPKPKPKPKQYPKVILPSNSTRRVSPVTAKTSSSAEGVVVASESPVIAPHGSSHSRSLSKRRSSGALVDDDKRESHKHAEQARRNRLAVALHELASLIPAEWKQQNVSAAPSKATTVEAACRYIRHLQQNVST
Description: relative binding free energy (BET-seq); higher = weaker binding. The following applies: reference: library average.
GAATACACGTGTGTGT: the “relative binding free energy” value was determined as 0.15 kcal/mol.

As to ATTTTCACGTGTACTG, the “relative binding free energy” value worked out at 0.17 kcal/mol.

Consider TTTTGCACGTGATTGC, for which the “relative binding free energy” value was determined as 0 kcal/mol.

Take CATGTCACGTGAGGTA: the “relative binding free energy” value is 0.18 kcal/mol.

For TTCTGCACGTGTTGTG, the “relative binding free energy” value was -0.05 kcal/mol.

Consider GCTAGCACGTGTTGTA, for which the “relative binding free energy” value stood at 0 kcal/mol.

For ATTTCCACGTGGTGCG, the “relative binding free energy” value is 0.07 kcal/mol.

Regarding GGGGACACGTGTGCGG, the “relative binding free energy” value was 0.01 kcal/mol.

Turning to AATGGCACGTGTGGCA, the “relative binding free energy” value was -0.05 kcal/mol.

Regarding TAGAACACGTGTGTTT, the “relative binding free energy” value is 0.19 kcal/mol.

For TGTGGCACGTGCGGCC, the “relative binding free energy” value is -0.19 kcal/mol.

On to TATGTCACGTGAGGTC, for which the “relative binding free energy” value was found to be 0.4 kcal/mol.

Turning to AAAGGCACGTGAAGTT, the “relative binding free energy” value is 0.19 kcal/mol.

As for ATTTTCACGTGGTTAC, the “relative binding free energy” value is 0.13 kcal/mol.

TGGTTCACGTGTGCTA: the “relative binding free energy” value was 0.22 kcal/mol.

For the sequence GTCATCACGTGATTGG, the “relative binding free energy” value is 0.31 kcal/mol.

In the case of GTGATCACGTGAATTA, the “relative binding free energy” value was determined as 0.38 kcal/mol.

Regarding GCCTGCACGTGGCGGG, the “relative binding free energy” value is -0.06 kcal/mol.

Take TATTTCACGTGGCAGG: the “relative binding free energy” value was 0.2 kcal/mol.

Turning to GAGAACACGTGTGGTG, the “relative binding free energy” value turned out to be 0.01 kcal/mol.

As for AAGTTCACGTGAAGGA, the “relative binding free energy” value came out at 0.41 kcal/mol.

As to GATTACACGTGTGTTT, the “relative binding free energy” value is 0.05 kcal/mol.

On to TTATGCACGTGTGGCC, for which the “relative binding free energy” value amounted to 0.03 kcal/mol.

In the case of GTGGTCACGTGAATGC, the “relative binding free energy” value was found to be 0.34 kcal/mol.

Consider GAGGACACGTGTGTGT, for which the “relative binding free energy” value turned out to be 0.07 kcal/mol.

Take TGGTTCACGTGGTCGA: the “relative binding free energy” value was 0.02 kcal/mol.

On to TTTATCACGTGGTGGT, for which the “relative binding free energy” value was found to be 0.17 kcal/mol.

For the sequence TGGATCACGTGTATCG, the “relative binding free energy” value was 0.19 kcal/mol.

Take TGTATCACGTGTCGTA: the “relative binding free energy” value was found to be 0.09 kcal/mol.

As for AATTTCACGTGGTACT, the “relative binding free energy” value is 0.13 kcal/mol.

For ATGAGCACGTGTGGGC, the “relative binding free energy” value is -0.07 kcal/mol.

Regarding TCGTGCACGTGGGGTG, the “relative binding free energy” value is -0.22 kcal/mol.

On to TTTAGCACGTGACGAT, for which the “relative binding free energy” value was found to be 0.23 kcal/mol.

Turning to TATCTCACGTGTTTGT, the “relative binding free energy” value came to 0.07 kcal/mol.

Consider TTCAGCACGTGTTTGG, for which the “relative binding free energy” value was 0 kcal/mol.

Turning to GGATCCACGTGGGTTA, the “relative binding free energy” value was determined as 0.02 kcal/mol.

Turning to GTTTACACGTGGGCTA, the “relative binding free energy” value was 0.04 kcal/mol.

As to TTTTACACGTGGTGGT, the “relative binding free energy” value was found to be 0.1 kcal/mol.

For the sequence TATTACACGTGTGGGG, the “relative binding free energy” value was determined as 0.09 kcal/mol.

Consider GTTTGCACGTGCGATG, for which the “relative binding free energy” value was 0.18 kcal/mol.

As for GTGACCACGTGCTGGT, the “relative binding free energy” value came out at 0.07 kcal/mol.

GCGCGCACGTGGTAGG: the “relative binding free energy” value is -0.19 kcal/mol.

Turning to GTGGCCACGTGGTCGG, the “relative binding free energy” value is -0.21 kcal/mol.

Take CAGTGCACGTGAGGGG: the “relative binding free energy” value was 0.12 kcal/mol.

Turning to GAAGGCACGTGCAGTT, the “relative binding free energy” value is -0.07 kcal/mol.

As to AAAATCACGTGAGTGT, the “relative binding free energy” value stood at 0.32 kcal/mol.

Consider TTACGCACGTGTCGGT, for which the “relative binding free energy” value is -0.16 kcal/mol.

As to TTTGGCACGTGTCGTG, the “relative binding free energy” value was -0.15 kcal/mol.

Consider CTGTCCACGTGGGTGT, for which the “relative binding free energy” value is -0.21 kcal/mol.

Consider GGTTACACGTGAGTAA, for which the “relative binding free energy” value is 0.14 kcal/mol.

Take GTACGCACGTGGGGGG: the “relative binding free energy” value is -0.19 kcal/mol.

Regarding TGGGACACGTGTCGGG, the “relative binding free energy” value is 0.16 kcal/mol.

ATTATCACGTGGTATG: the “relative binding free energy” value amounted to 0.07 kcal/mol.

As for CGGGTCACGTGGGTTC, the “relative binding free energy” value amounted to 0.01 kcal/mol.

As for AAAAGCACGTGGGTGT, the “relative binding free energy” value is -0.32 kcal/mol.

On to GGTCGCACGTGAAGAT, for which the “relative binding free energy” value amounted to 0.49 kcal/mol.

With GGTTTCACGTGCATAG, the “relative binding free energy” value was determined as 0.34 kcal/mol.

With TGCGTCACGTGTAGGA, the “relative binding free energy” value was -0.02 kcal/mol.

Take ACGGTCACGTGGTTGT: the “relative binding free energy” value was 0.04 kcal/mol.

GTTGACACGTGGTGCA: the “relative binding free energy” value was -0.14 kcal/mol.

Consider GGAATCACGTGGTATG, for which the “relative binding free energy” value turned out to be 0.11 kcal/mol.

As for GTTGGCACGTGGGTGA, the “relative binding free energy” value is -0.18 kcal/mol.

For GGAAGCACGTGGTTCG, the “relative binding free energy” value is -0.21 kcal/mol.

As to GGTGGCACGTGTAATT, the “relative binding free energy” value worked out at 0.11 kcal/mol.

Consider GTAAACACGTGGTTAT, for which the “relative binding free energy” value was -0.17 kcal/mol.

For the sequence GGGCGCACGTGGGGTC, the “relative binding free energy” value is -0.18 kcal/mol.

As to TGTCTCACGTGAAGTG, the “relative binding free energy” value came to 0.45 kcal/mol.

As to AGTTACACGTGTGGTG, the “relative binding free energy” value was 0.12 kcal/mol.

For the sequence AGGTGCACGTGGAGTG, the “relative binding free energy” value is -0.01 kcal/mol.

In the case of TATTGCACGTGGAGTT, the “relative binding free energy” value is -0.03 kcal/mol.

On to GGCGGCACGTGTTTTT, for which the “relative binding free energy” value was -0.05 kcal/mol.

For the sequence GGCTTCACGTGGCTGT, the “relative binding free energy” value was 0.31 kcal/mol.

AGGCGCACGTGCTGTG: the “relative binding free energy” value is -0.2 kcal/mol.

ATTGTCACGTGTTAAT: the “relative binding free energy” value amounted to 0.08 kcal/mol.

Take AAATGCACGTGCGTGT: the “relative binding free energy” value was -0.09 kcal/mol.

Regarding GGGAGCACGTGAGTTA, the “relative binding free energy” value was 0.21 kcal/mol.

For the sequence TTGCTCACGTGGGGGA, the “relative binding free energy” value was -0.04 kcal/mol.

Consider TTGATCACGTGATTCT, for which the “relative binding free energy” value is 0.3 kcal/mol.

Turning to CAGTGCACGTGAGTGA, the “relative binding free energy” value turned out to be 0.35 kcal/mol.

Regarding GTGCTCACGTGAGGTA, the “relative binding free energy” value is 0.36 kcal/mol.

On to GTGAGCACGTGCTTTG, for which the “relative binding free energy” value was -0.11 kcal/mol.

On to TTAAGCACGTGTGCGA, for which the “relative binding free energy” value is -0.06 kcal/mol.

As to GTAAGCACGTGTTGCG, the “relative binding free energy” value is -0.07 kcal/mol.

As to GGTCACACGTGGGGGA, the “relative binding free energy” value is -0.14 kcal/mol.

As for CAATGCACGTGGAGTG, the “relative binding free energy” value is -0.09 kcal/mol.

Consider GGGATCACGTGGTTAT, for which the “relative binding free energy” value was found to be 0.11 kcal/mol.

TATAGCACGTGGATTG: the “relative binding free energy” value is -0.16 kcal/mol.

As to AGGGGCACGTGGGAGG, the “relative binding free energy” value was -0.17 kcal/mol.

For TAATACACGTGTTTTA, the “relative binding free energy” value was found to be 0 kcal/mol.

Take TCGAGCACGTGGGCTG: the “relative binding free energy” value was -0.24 kcal/mol.

For TATGGCACGTGCCGTT, the “relative binding free energy” value is -0.21 kcal/mol.

Regarding GTGAGCACGTGTCATG, the “relative binding free energy” value is -0.02 kcal/mol.

For GGTGGCACGTGGGCGA, the “relative binding free energy” value is -0.25 kcal/mol.

Regarding TGTGTCACGTGTGAGG, the “relative binding free energy” value is 0.2 kcal/mol.

With GGTTGCACGTGTTTGT, the “relative binding free energy” value is -0.02 kcal/mol.

As for TGTTGCACGTGAATGT, the “relative binding free energy” value was determined as 0.3 kcal/mol.

On to GCCGGCACGTGTGAGG, for which the “relative binding free energy” value was 0.04 kcal/mol.

On to CTTGACACGTGTGGAT, for which the “relative binding free energy” value was 0.12 kcal/mol.

As for GTCTGCACGTGCGTTG, the “relative binding free energy” value was -0.09 kcal/mol.

For the sequence CTCGGCACGTGCTGGG, the “relative binding free energy” value was -0.2 kcal/mol.

For TTGATCACGTGAGTTT, the “relative binding free energy” value came to 0.43 kcal/mol.

CGGGGCACGTGGATGT: the “relative binding free energy” value is -0.17 kcal/mol.

For AGTTCCACGTGTTGGG, the “relative binding free energy” value was determined as 0.12 kcal/mol.

Turning to GAAAGCACGTGTGGGA, the “relative binding free energy” value was 0.01 kcal/mol.

For the sequence ATTGGCACGTGGCTTG, the “relative binding free energy” value was -0.15 kcal/mol.

Turning to CATTGCACGTGGGGGG, the “relative binding free energy” value is -0.17 kcal/mol.

Take GTTTACACGTGTATTT: the “relative binding free energy” value came to 0.04 kcal/mol.

On to TGTAACACGTGGTGCA, for which the “relative binding free energy” value was -0.2 kcal/mol.

Consider GTTATCACGTGATACT, for which the “relative binding free energy” value is 0.38 kcal/mol.

As for GGCGACACGTGGAAGG, the “relative binding free energy” value came to 0.12 kcal/mol.

For the sequence AGCGCCACGTGGTGTT, the “relative binding free energy” value is -0.23 kcal/mol.

Take ATTTACACGTGGGGTG: the “relative binding free energy” value is -0.05 kcal/mol.

In the case of TTCATCACGTGTTGAT, the “relative binding free energy” value turned out to be 0.11 kcal/mol.

In the case of AAGTCCACGTGAGGTT, the “relative binding free energy” value turned out to be 0.24 kcal/mol.

AGTATCACGTGGTGCT: the “relative binding free energy” value was -0.05 kcal/mol.

Source of the values: the BET-seq Pho4 binding data (Le et al. 2018).
